Laboratory results reported in the supplement of paper PMC12217912.
Some of the results follow. Sequences were assembled here from the parent chain. Inactive controls read about 0.05.

B1: TEV protease; numbered along this chain (parent)
chain: MGESLFKGPRDYNPISSSICHLTNESDGHTTSLYGIGFGPFIITNKHLFRRNNGTLVVQSLHGVFKVKDTTTLQQHLVDGRDMIIIRMPKDFPPFPQKLKFREPQREERICLVTTNFQTKSMSSMVSDTSCTFPSGDGIFWKHWIQTKDGQCGSPLVSTRDGFIVGIHSASNFTNTNNYFTSVPKNFMELLTNQEAQQWVSGWRLNADSVLWGGHKVFMVKPEEPFQPVKEATQL

Variants of: B1
Experiment: raw area under fraction-flipped curve 0-4 h after induction (AUC4h, not background-subtracted), DNA-recorder readout of cleavage of the substrate (dimensionless); higher = more cleavage of the substrate by the protease variant
Conditions: temperature: 34 °C; time window: 0-4 h after rhamnose induction
Description: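 In vivo DNA recorder in E. coli TOP10(DE3) ΔrhaA at 34 °C. Each TEVp single-site mutant (parent TEVp 0) is paired with a single-site variant of the 7-mer TEVs (canonical ENLYFQ|S). The substrate sits between flexible linkers in a Bxb1-sfGFP-TEVs-SsrA fusion, so cleavage stabilises Bxb1 and speeds flipping of a recombination array, read by NGS. The value is the raw area under the fraction-flipped curve over 0-4 h after rhamnose induction (AUC4h), with ≥20 reads per time point. It is not background-subtracted; inactive controls average about 0.047.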
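Also: Bxb1 expression induced with 0.2% (w/v) L-rhamnose at OD600 near 0.5, cultures sampled hourly, flipped fraction per protease–substrate barcode pair counted by paired-end Illumina sequencing.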

Variant | area with substrate ENLYFQA | area with substrate ENLYFQE | area with substrate ENLYFQG | area with substrate ENLYFQH | area with substrate ENLYFQI | area with substrate ENLYFQK | area with substrate ENLYFQL | area with substrate ENLYFQM | area with substrate ENLYFQN | area with substrate ENLYFQR | area with substrate ENLYFQS | area with substrate ENLYFQT | area with substrate ENLYFQV | area with substrate ENLYFQW | area with substrate ENLYFQD | area with substrate ENLYFQY | area with substrate ENLYFQC | area with substrate ENLYFQP | area with substrate ENLYFQQ | area with substrate ENLYFQF
I42V | 0.127 | 0.0757 | 0.112 | 0.0754 | 0.0757 | 0.0666 | 0.0557 | 0.0748 | 0.081 | 0.0735 | 0.104 | 0.0709 | 0.0406 | 0.062 |  |  |  |  |  | 
V58R | 0.0403 |  | 0.0457 | 0.0296 | 0.0432 |  | 0.058 |  | 0.0565 | 0.0553 | 0.0504 | 0.0645 |  | 0.057 | 0.0539 | 0.0496 |  |  |  | 
R50C | 0.104 |  | 0.0829 | 0.0896 |  |  | 0.0396 | 0.0958 |  |  | 0.117 | 0.0676 |  | 0.0734 |  |  | 0.122 |  |  | 
T23K | 0.0607 |  | 0.0776 |  | 0.0596 | 0.0802 |  | 0.0833 | 0.0677 | 0.0735 | 0.0916 | 0.0568 | 0.0599 | 0.0537 |  | 0.0784 | 0.0859 | 0.0574 |  | 
T23A | 0.0825 |  | 0.101 | 0.071 | 0.0543 | 0.0644 | 0.0569 | 0.0781 | 0.0638 | 0.0646 | 0.0958 | 0.0591 | 0.0584 | 0.0674 |  |  | 0.112 | 0.0544 | 0.0646 | 
Q59K | 0.0981 |  | 0.0886 |  | 0.0583 |  | 0.0461 | 0.0965 |  | 0.0607 | 0.109 | 0.05 | 0.0484 |  | 0.095 |  |  |  |  | 
Q59G | 0.132 |  | 0.124 |  | 0.0828 |  |  | 0.102 |  | 0.0608 | 0.0984 | 0.0564 | 0.0691 |  |  | 0.0587 | 0.106 |  |  | 
L22S | 0.0508 | 0.0518 | 0.0571 | 0.0513 | 0.0484 | 0.0465 | 0.0477 |  |  | 0.0508 | 0.0524 | 0.047 | 0.0568 | 0.045 |  | 0.0445 | 0.0461 | 0.0537 | 0.0419 | 0.0399
L22H | 0.0596 |  | 0.0459 |  | 0.0351 | 0.043 | 0.044 | 0.0614 | 0.049 | 0.0432 | 0.0504 | 0.0552 | 0.038 | 0.0435 |  | 0.0679 | 0.0578 | 0.0389 | 0.0647 | 0.055
L22D | 0.0491 | 0.0396 | 0.0523 | 0.0498 | 0.049 | 0.0507 | 0.0374 | 0.0525 | 0.0436 | 0.0455 | 0.0471 | 0.051 |  | 0.041 | 0.0249 | 0.0348 | 0.0372 |  |  | 0.0442
F49Y | 0.0656 | 0.037 |  | 0.0556 | 0.053 | 0.11 |  | 0.0568 | 0.0541 | 0.0435 | 0.0668 |  | 0.0547 | 0.0558 |  |  | 0.0681 | 0.0498 | 0.0417 | 
F49Q | 0.0631 |  | 0.0608 |  | 0.0547 | 0.0427 |  | 0.0599 | 0.0571 | 0.0629 | 0.0604 |  |  | 0.0074 |  |  | 0.0661 | 0.0496 | 0.0667 | 0.0378
F49D | 0.0496 | 0.0609 | 0.052 |  | 0.0524 |  | 0.0555 | 0.0528 | 0.059 | 0.0545 | 0.0554 |  |  |  |  | 0.0304 | 0.0537 | 0.044 | 0.0136 | 0.0625
T55C | 0.0821 |  | 0.122 |  |  |  | 0.0609 | 0.0947 | 0.0806 | 0.0476 | 0.104 | 0.0464 | 0.0638 | 0.0581 |  |  | 0.143 | 0.0516 | 0.0552 | 0.0698
G37F | 0.0689 |  | 0.0727 | 0.0527 | 0.0519 | 0 | 0.0547 | 0.0593 | 0.0563 | 0.058 | 0.0711 | 0.0548 | 0.0404 | 0.0572 |  | 0.0852 | 0.0925 | 0.0308 | 0.0657 | 0.0496
G37A | 0.101 |  |  | 0.088 |  | 0.0629 | 0.0456 | 0.0641 | 0.0798 | 0.062 | 0.104 | 0.0641 | 0.0596 | 0.0562 | 0.0511 |  |  |  |  | 
N53Q | 0.0694 |  | 0.0856 | 0.0599 | 0.0714 | 0.0541 | 0.0678 | 0.0673 | 0.0658 | 0.0524 | 0.0891 | 0.0493 |  |  | 0.0446 | 0.0677 |  | 0.064 | 0.0736 | 
S26Q | 0.0814 |  | 0.0795 |  | 0.0598 | 0.0689 | 0.0681 | 0.072 | 0.0664 | 0.056 | 0.08 | 0.0618 | 0.0637 | 0.0658 | 0.0676 | 0.069 | 0.106 | 0.0651 | 0.0929 | 
S26E | 0.0911 |  | 0.0891 | 0.0905 | 0.0638 | 0.081 | 0.0624 | 0.0709 | 0.0656 | 0.061 | 0.0886 | 0.0697 | 0.0577 | 0.0695 | 0.0683 | 0.0744 | 0.0919 | 0.0658 |  | 0.0775
S26R | 0.0778 |  |  |  | 0.0599 | 0.0582 | 0.0522 | 0.0658 | 0.0591 | 0.0631 | 0.0726 | 0.0724 | 0.0587 | 0.0598 | 0.0587 | 0.0574 | 0.0787 | 0.0355 | 0.0515 | 
L33H | 0.0701 | 0.0636 | 0.0777 | 0.0528 | 0.0587 | 0.0614 | 0.0556 | 0.0548 | 0.0475 |  | 0.0696 | 0.0606 |  | 0.0685 | 0.0699 | 0.0466 | 0.0751 | 0.0619 | 0.0683 | 
L33Y | 0.0501 | 0.0884 |  | 0.0636 | 0.0545 | 0.0666 | 0.0686 | 0.0926 | 0.0652 | 0.0473 | 0.0609 | 0.0603 | 0.069 | 0.0555 | 0.0567 | 0.0411 | 0.0593 | 0.058 |  | 
L33R | 0.057 |  |  |  | 0.0663 | 0.0552 |  | 0.0591 | 0.0629 | 0.0669 | 0.0608 | 0.0671 | 0.0728 | 0.057 |  | 0.05 | 0.0528 |  | 0.0501 | 0.0497
K66M | 0.0824 | 0.0565 | 0.0928 | 0.0923 | 0.0611 | 0.0613 | 0.0753 | 0.0825 | 0.088 | 0.0542 | 0.103 | 0.0678 |  | 0.0596 |  | 0.0788 | 0.116 |  |  | 0.0884
